We go through 25 molecules from publication PMC4336329 (PLoS ONE, 2015).

Hit rate of the full screen: of about 310,000 compounds, about 2,200 (0.71%) showed an effect of 50% or more. The effect is printed as a negative number. Some of the results follow.

human ether-à-go-go-related gene (hERG) potassium channel, sequence (Q12809 whole entry, looked up): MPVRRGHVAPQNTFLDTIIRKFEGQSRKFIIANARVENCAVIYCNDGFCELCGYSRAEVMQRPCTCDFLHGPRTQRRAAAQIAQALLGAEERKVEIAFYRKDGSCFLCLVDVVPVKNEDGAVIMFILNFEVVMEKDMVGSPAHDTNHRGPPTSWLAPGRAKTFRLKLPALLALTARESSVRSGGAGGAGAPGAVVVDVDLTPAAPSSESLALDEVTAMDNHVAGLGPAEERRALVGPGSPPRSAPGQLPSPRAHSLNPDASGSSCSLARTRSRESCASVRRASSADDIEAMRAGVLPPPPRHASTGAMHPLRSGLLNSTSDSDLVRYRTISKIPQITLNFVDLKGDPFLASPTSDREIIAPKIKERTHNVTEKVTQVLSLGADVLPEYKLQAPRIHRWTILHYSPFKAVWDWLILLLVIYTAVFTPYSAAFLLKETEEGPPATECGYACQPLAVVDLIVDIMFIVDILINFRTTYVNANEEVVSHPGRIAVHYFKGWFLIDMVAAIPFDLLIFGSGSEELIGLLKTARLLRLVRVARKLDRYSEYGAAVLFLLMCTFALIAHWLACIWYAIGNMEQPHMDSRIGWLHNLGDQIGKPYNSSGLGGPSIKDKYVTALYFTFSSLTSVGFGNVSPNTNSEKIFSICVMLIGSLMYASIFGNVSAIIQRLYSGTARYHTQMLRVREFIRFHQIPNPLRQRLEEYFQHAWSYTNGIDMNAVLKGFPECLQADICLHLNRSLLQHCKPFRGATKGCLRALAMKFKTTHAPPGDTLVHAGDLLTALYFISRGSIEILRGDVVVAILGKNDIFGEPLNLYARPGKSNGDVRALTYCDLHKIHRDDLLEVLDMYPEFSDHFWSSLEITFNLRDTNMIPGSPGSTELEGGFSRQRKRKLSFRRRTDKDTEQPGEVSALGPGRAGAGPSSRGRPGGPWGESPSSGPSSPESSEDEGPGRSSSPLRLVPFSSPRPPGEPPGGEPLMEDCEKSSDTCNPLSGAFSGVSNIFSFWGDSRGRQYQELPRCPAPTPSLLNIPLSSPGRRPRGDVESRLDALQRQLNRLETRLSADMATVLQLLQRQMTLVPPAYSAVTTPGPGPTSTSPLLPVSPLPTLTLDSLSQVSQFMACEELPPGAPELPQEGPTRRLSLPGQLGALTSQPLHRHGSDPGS

This assay concerns the target human ether-à-go-go-related gene (hERG) potassium channel (human, UniProt Q12809). Description: primary screen, population patch clamp on CHO cells stably expressing hERG.
Take `CCc1sc(NC(=O)c2cc3ccccc3oc2=O)nc1-c1cccs1`: the “hERG current change (%, negative = inhibition) at 1uM” value is recorded as 15.9%.

As for `Cc1ccccc1CSc1nc2ccccc2c(=O)[nH]1`, the “hERG current change (%, negative = inhibition) at 1uM” value is given as 7.87%.

Regarding `COc1cc(NC(=O)CSc2ncnc3scc(-c4ccccc4)c23)c(C(=O)O)cc1OC`, the “hERG current change (%, negative = inhibition) at 1uM” value turned out to be 11.2%.

In the case of `Nc1cc(N)nc(SCCc2ccccc2)n1`, the “hERG current change (%, negative = inhibition) at 1uM” value stood at 13%.

As to `O=c1[nH]c(CN2CCN(c3ccccc3)CC2)nc2scc(-c3ccccc3)c12`, the “hERG current change (%, negative = inhibition) at 1uM” value was 9.06%.

As to `Nc1cccc(Cl)c1N1CCOCC1`, the “hERG current change (%, negative = inhibition) at 1uM” value is listed as 9%.

Consider `Cc1ccsc1CN(C(=O)c1ccc([N+](=O)[O-])cc1)C1CCS(=O)(=O)C1` (stereo not shown), for which the “hERG current change (%, negative = inhibition) at 1uM” value is -21%.

Regarding `CN(C)/C=N/C(=S)Nc1ccccc1Cl`, the “hERG current change (%, negative = inhibition) at 1uM” value worked out at 16.3%.

For the molecule `COc1ccc(CNCC(O)(c2ccccc2)c2ccccc2)cc1`, the “hERG current change (%, negative = inhibition) at 1uM” value is listed as -21.9%.

Take `C=CCOc1ccc(/C(O)=C2\C(=O)C(=O)N(CCCOC)C2c2ccncc2)cc1` (stereo not shown): the “hERG current change (%, negative = inhibition) at 1uM” value is 7.57%.

On to `COC(=O)/C(=C\C(=O)c1ccccc1)Nc1ccc(OC)cc1`, for which the “hERG current change (%, negative = inhibition) at 1uM” value amounted to 15.2%.

Consider `Cn1ncc2cc(NC(N)=S)ccc21`, for which the “hERG current change (%, negative = inhibition) at 1uM” value amounted to 10.3%.

Regarding `CCCCN(CCCNC(=O)Cn1ncc2ccsc2c1=O)Cc1ccccc1`, the “hERG current change (%, negative = inhibition) at 1uM” value is given as -3.54%.

For `CCCOc1ccc(N2CC(C(=O)Nc3ccccc3OC)CC2=O)cc1` (stereo not shown), the “hERG current change (%, negative = inhibition) at 1uM” value was -2.8%.

`CS(=O)(=O)c1nc(S(=O)(=O)c2ccc(Cl)cc2)c(N2CCN(CCO)CC2)s1`: the “hERG current change (%, negative = inhibition) at 1uM” value came out at 5.87%.

`COc1cc(OC)c(C(=O)OCC(=O)N2CC(=O)Nc3ccccc32)cc1OC`: the “hERG current change (%, negative = inhibition) at 1uM” value came to 21.7%.

For the molecule `CC(=C1C(=O)c2ccccc2C1=O)N1CCN(Cc2ccccc2)CC1`, the “hERG current change (%, negative = inhibition) at 1uM” value is given as -7.59%.

For `COc1cc(/C=C/C(=O)OC(C)C(=O)Nc2c(C)n(C)n(-c3ccccc3)c2=O)ccc1O` (stereo not shown), the “hERG current change (%, negative = inhibition) at 1uM” value came to 7.6%.

Consider `CCc1sc(C(=O)N2CCCN(C)CC2)cc1Br`, for which the “hERG current change (%, negative = inhibition) at 1uM” value was 0.098%.

`O=C(O)COc1ccc(/C=N/NC(=O)C(O)(c2ccccc2)c2ccccc2)cc1`: the “hERG current change (%, negative = inhibition) at 1uM” value stood at 21.4%.

`CCOc1ccc2[nH]c3nc(SCC(=O)NC4CC4)nnc3c2c1`: the “hERG current change (%, negative = inhibition) at 1uM” value is 13.8%.

Regarding `COc1ccc(N2CCN(c3nc4ccccn4c(=O)c3C=O)CC2)cc1`, the “hERG current change (%, negative = inhibition) at 1uM” value came out at 2.34%.

Take `CC(C)C(=O)NNC(=O)c1c(O)c2ccccc2[nH]c1=O`: the “hERG current change (%, negative = inhibition) at 1uM” value worked out at 9.75%.

For the molecule `COc1ccc(S(=O)(=O)N2CCC(C(=O)Nc3ccc4c(c3)OCCO4)CC2)cc1OC`, the “hERG current change (%, negative = inhibition) at 1uM” value came out at 1.78%.

Take `Nc1ccc(CSc2ccc(Cl)cc2)cc1`: the “hERG current change (%, negative = inhibition) at 1uM” value was -2.05%.
